Measurements reported in PubChem BioAssay AID360 (National Center for Advancing Translational Sciences (NCATS), 2006).
Out of some 48,000 compounds screened, about 550 (1.1%) were called active. Not shown: some 4% with an inconclusive outcome. No stated cut-off is given here; in the data, active means potency below about 15 µM; inconclusive means mostly about 16 µM to 33 µM; inactive means weaker than that. The list shows a part of the results.

These compounds were tested against Lysosomal acid glucosylceramidase (Homo sapiens) (UniProt P04062) (assay: Glucocerebrosidase). Details: purified enzyme, resorufin glucoside fluorescence (screen aimed at inhibitors), 20 min; series mostly up to 77 µM.
Sequence of UniProt P04062 (P04062 whole entry, looked up): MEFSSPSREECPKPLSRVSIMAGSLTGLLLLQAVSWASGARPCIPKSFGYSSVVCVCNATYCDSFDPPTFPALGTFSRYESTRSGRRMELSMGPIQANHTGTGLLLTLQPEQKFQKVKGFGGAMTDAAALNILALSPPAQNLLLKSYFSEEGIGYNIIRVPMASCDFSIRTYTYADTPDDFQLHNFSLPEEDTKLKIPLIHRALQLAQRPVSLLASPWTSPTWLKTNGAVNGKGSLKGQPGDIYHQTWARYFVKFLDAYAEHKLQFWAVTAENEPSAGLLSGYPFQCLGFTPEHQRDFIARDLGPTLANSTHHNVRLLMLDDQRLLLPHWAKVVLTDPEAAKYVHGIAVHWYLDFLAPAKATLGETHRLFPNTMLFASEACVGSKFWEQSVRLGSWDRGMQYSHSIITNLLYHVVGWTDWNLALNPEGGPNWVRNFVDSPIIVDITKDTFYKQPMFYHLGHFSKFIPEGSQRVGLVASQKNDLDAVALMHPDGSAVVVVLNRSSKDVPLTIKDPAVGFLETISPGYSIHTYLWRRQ
Method in brief: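 Compounds titrated against 0.2 nM normal enzyme, 30 uM resorufin beta-D-glucopyranoside substrate, citrate/phosphate buffer with taurocholate and tween-20, pH 5.9. Reaction ran 20 min at room temperature; fluorescence (Ex 548/Em 600) gave AC50.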
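Further: the screen sought inhibitors.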
Potency means the concentration at half of the fitted maximal effect.

Potency, inactive:
Cn1c(-c2ccccc2)c(CCO)c2ccccc21 > 76.9 µM
O=C(c1ccccc1)N1CCN(c2ccccc2F)CC1 > 76.9 µM
CCCCC(c1nnnn1CC1CCCO1)N1CCN(c2nc3ccccc3s2)CC1 (stereo not drawn) > 76.9 µM
Cc1cccc(N2CCN(C(=O)C3CCCN(S(=O)(=O)c4cnc[nH]4)C3)CC2C)c1 (stereo not drawn) > 76.9 µM
Cc1ccc(-n2c(Cc3cccn3C)nnc2SCC(=O)NCc2ccco2)cc1 > 76.9 µM
CC1CN(c2nc3c(c(=O)n(Cc4ccc(Cl)c(Cl)c4)c(=O)n3C)n2C)CC(C)O1 (stereo not drawn) > 76.9 µM
C=CCSc1nncn1/N=C/c1ccc(OC)cc1 > 76.9 µM
Cc1cccc(N2CC(C)Cn3c2nc2c3c(=O)n(CC(=O)OCc3ccccc3)c(=O)n2C)c1 (stereo not drawn) > 76.9 µM
NC(=O)c1cc(-c2ccccc2)nc(N2CCCCCC2)n1 > 76.9 µM
Fc1ccc(CNc2ccc(CNc3ncn[nH]3)cc2)cc1 > 76.9 µM
COCCn1c(=O)[nH]c2cc(C(=O)NCCN3CCN(c4ccccc4)CC3)ccc2c1=O > 76.9 µM
Cc1nnc(SCc2ccccc2Cl)n1CC1CCCO1 (stereo not drawn) > 76.9 µM
O=C(CSc1ccc(-c2ccc(F)cc2)nn1)N1CCCCC1 > 76.9 µM
O=C(NCc1cccnc1)Nc1cccc(NC(=O)NCc2cccnc2)c1 > 76.9 µM
COc1cccc(C2=NOC(C(=O)Nc3ccc(OC)c(OC)c3)C2)c1 (stereo not drawn) > 76.9 µM
Oc1ccc(-c2[nH]ncc2-c2cccc3cccnc23)c(O)c1 > 76.9 µM
CCOC(=O)CCNC(=O)c1ccccc1Br > 76.9 µM
COc1cc(-c2nnc(CSc3nc4ccccc4s3)o2)cc(OC)c1OC > 76.9 µM
O=C(CCSc1nnnn1-c1ccccc1)N1CCOCC1 > 76.9 µM
Cc1ccc(C(=O)CSc2nc3ccccc3c(=O)n2N)o1 > 76.9 µM
CCN(CC(=O)Nc1ccccc1C(=O)OC)S(=O)(=O)c1ccc(OC)cc1 > 76.9 µM
O=C(Nc1ccc2c(c1)OCO2)C1CCN(Cc2cnn(-c3ccccc3)c2-n2cccc2)CC1 > 76.9 µM
O=C(CCCn1c(=O)c2sccc2n(CC(=O)OCc2ccccc2)c1=O)NCc1ccco1
COC(=O)c1cc(CC(=O)c2ccc(O)cc2O)c(C)o1 > 76.9 µM
O=C(CCn1[nH]c(=O)c2ccccc2c1=O)OC1CCCCC1 > 76.9 µM
CCC1(CC)Nc2ccccc2C(=O)N1c1ccc(NC(C)=O)cc1 > 76.9 µM
O=c1[nH]c(CN2CCN(Cc3ccc4c(c3)OCO4)CC2)nc2ccccc12 > 76.9 µM
c1csc(CSc2nc3ccccc3s2)c1 > 76.9 µM
Cc1ccc(O)c(NC(=O)c2cccc(S(=O)(=O)N3CCCCC3)c2)c1 > 76.9 µM
COc1ccc(S(=O)(=O)N(CCCN2CCCC2=O)Cc2cc3cc(C)c(C)cc3[nH]c2=O)cc1 > 76.9 µM
Fc1ccc(CN2CCSCC2)cc1Br > 76.9 µM
Cc1cc(S(=O)(=O)N(Cc2ccc3c(c2)OCO3)CC2CCCO2)ccc1-n1cnnn1 (stereo not drawn) > 76.9 µM
CCCCNC(=O)CCCCCNS(=O)(=O)c1ccc(OC)cc1 > 76.9 µM
CCCSC1=C(C#N)C(c2ccccc2OCC)CC(=O)N1 (stereo not drawn) > 76.9 µM
COc1ccc(CC(=O)Nc2nc(C)cs2)cc1OC > 76.9 µM
Cc1c(OC(=O)CNC(=O)OC(C)(C)C)ccc2c3c(c(=O)oc12)CCC3 > 76.9 µM
Cc1cc2c(c(C)nn2-c2ccccc2)c(=O)o1 > 76.9 µM
Cn1c(=O)c2c(nc(CN3CCOCC3)n2CCc2ccccc2)n(C)c1=O > 76.9 µM
CCOC(=O)c1cc(OCC(=O)NC(C)C(C)C)cc(C(=O)OCC)c1 (stereo not drawn) > 76.9 µM
CC(C)C(NS(=O)(=O)c1cccs1)C(=O)NCCN1CCN(c2ccccc2)CC1 (stereo not drawn) > 76.9 µM
N#CCSc1nc2cc(C(=O)N3CCCC3)ccc2c(=O)n1Cc1ccccc1 > 76.9 µM
CC1CC(C)CN(C(=O)COC(=O)c2cc3ccccc3cc2O)C1 (stereo not drawn) > 76.9 µM
COc1cc(OC)c(C(=O)Nc2ccc(S(=O)(=O)Nc3ncccn3)cc2)cc1OC > 76.9 µM
O=C(Nc1ccc2c(c1)OCO2)C1CCN(C(=O)CSc2ncnc3ccccc23)CC1 > 76.9 µM
CCC(=O)N(Cc1cc(=O)[nH]c2ccccc12)c1cccc(C)c1 > 76.9 µM
Cc1nnc2ccc(N3CCCC3)nn12 > 76.9 µM
Cc1ccc(SCCNS(C)(=O)=O)cc1 > 76.9 µM
Cn1c(=O)cc(SCC(=O)NCc2cccnc2)c2ccccc21 > 76.9 µM
Cc1ccc(N(C(=O)CCC(=O)Nc2cc(C)on2)C(C(=O)NC2CCCC2)c2ccncc2)cc1 (stereo not drawn) > 15.4 µM
CC(NC(=O)c1cccs1)c1ccc2c(c1)OCO2 (stereo not drawn) > 76.9 µM
COc1ccc(N2C(=O)CSC23C(=O)Nc2ccccc23)cc1OC (stereo not drawn) > 76.9 µM
O=C(CSc1nnc(-c2ccc(OC(F)F)cc2)o1)NC(=O)NCc1ccco1 > 76.9 µM
CCNC(=O)c1c(C)[nH]c(C(=O)OCC)c1C > 76.9 µM
COCCn1c(CN2CCN(c3ccc(OC)cc3)CC2)nc2c1c(=O)n(C)c(=O)n2C > 76.9 µM
CCOC(=O)c1ccc(NC(=O)CSc2nnc(CNc3ccc(OC)cc3)n2C)cc1 > 15.4 µM
Cc1cc(C)n(C(C)n2nc(C)cc2C)n1 > 76.9 µM
CN=C(Nc1cc(C)nn1CCC#N)c1ccccc1 > 76.9 µM
Cc1cc2cc(CN(CCCO)S(=O)(=O)c3cccc4nsnc34)c(=O)[nH]c2cc1C > 76.9 µM
